Source: article PMC6212790
This is one part of the list. At the low end of the ranking the order means little.

Each sequence was assayed against T1, GST-Rok (full length) (UniProt O34857) (assay: protein binding microarray). Settings: Rok is a gene silencer of Bacillus subtilis; high values mean tight binding; most listed sequences are background and not binding sites; double strand, one strand shown.
T1 sequence: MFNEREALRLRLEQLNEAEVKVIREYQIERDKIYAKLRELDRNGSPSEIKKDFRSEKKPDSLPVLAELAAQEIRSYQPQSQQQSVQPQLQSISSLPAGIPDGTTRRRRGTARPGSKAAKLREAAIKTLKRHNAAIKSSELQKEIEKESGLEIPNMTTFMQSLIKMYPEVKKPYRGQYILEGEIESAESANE
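Also: rank score from −0.5 (least bound) to 0.5 (best bound).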

Sequence	binding signal
AGCCACTG	-0.226 E-score
GATGCCAC	-0.22 E-score
AGCCGAGA	-0.224 E-score
GTCTAGAC	0.168 E-score
ACCGTCGC	-0.261 E-score
ATTAGACG	0.0757 E-score
CTACGCTC	-0.131 E-score
CAAGGAGA	-0.213 E-score
GGGCTATA	-0.0501 E-score
AATTAGGG	-0.0268 E-score
AACATAGT	0.205 E-score
AGGGCAAG	-0.303 E-score
CATTAAAG	-0.0743 E-score
AATCCCGG	-0.195 E-score
ACTGGTTA	0.0445 E-score
GGACGCGA	-0.252 E-score
ACAGGGAT	-0.0596 E-score
GGGTGGAC	-0.379 E-score
GCCGGCGA	-0.312 E-score
CACACCCG	-0.293 E-score
CAGTTAAG	-0.054 E-score
AAGATTTC	0.113 E-score
AGGTCTAC	0.0332 E-score
AGCAATCC	0.0127 E-score
CGTCATCA	-0.185 E-score

Sequence	binding signal
AGAATGCG	0.0578 E-score
CGTACAAA	0.194 E-score
CTGTGGCA	-0.207 E-score
AACGGGTA	-0.0103 E-score
CCACTTCG	-0.0384 E-score
ACGTCCAG	-0.000994 E-score
GCAATTGC	0.146 E-score
CCTATCGA	0.144 E-score
GGGTACAC	-0.207 E-score
CCGCCAGA	-0.268 E-score
GGGTGAGA	-0.126 E-score
AGCCTCAG	-0.214 E-score
CACGATGC	0.0284 E-score
CACATCGG	-0.177 E-score
ATGGATCG	0.0845 E-score
GCAACCCA	-0.00137 E-score
ATGTGGTC	-0.125 E-score
AGGATTAA	0.0191 E-score
GCGCGACA	0.021 E-score
GCGATGAC	-0.0125 E-score
ACACACTC	0.000516 E-score
ACGATCTC	-0.146 E-score
AATATCAG	0.151 E-score
ACACTACT	0.236 E-score
TACCGGGA	-0.00971 E-score

Sequence	binding signal
CACACTCC	-0.243 E-score
CTATGGCC	-0.0832 E-score
GATACGGC	-0.136 E-score
CACCAAAC	0.182 E-score
AAGGTTCT	-0.0946 E-score
CAACATCG	0.0482 E-score
AGCAGTAA	0.161 E-score
CAATCCTG	-0.0381 E-score
ACCAGGGT	-0.133 E-score
GGTGGAGA	-0.0713 E-score
CCTCCTTC	-0.309 E-score
TGTCCAAA	0.0695 E-score
ATCTAACC	0.0779 E-score
TCAGTCCA	-0.23 E-score
AAACCTGG	-0.0374 E-score
GAAGGTAA	0.0269 E-score
TAAATTTA	0.361 E-score
ACGTGGTA	0.162 E-score
AGGGACGC	-0.339 E-score
AGACTGTG	-0.176 E-score
CCCGGGCG	-0.401 E-score
TCACGGAA	-0.0608 E-score
ACATTCGT	0.0978 E-score
ACGGTACA	0.198 E-score
AAGTAGGC	-0.0183 E-score

Sequence	binding signal
CTAGGGAG	-0.242 E-score
GAGGACTA	-0.113 E-score
GACATGTA	0.192 E-score
CCTCCAGA	-0.168 E-score
GGGGGTAC	-0.313 E-score
ACAGCCAC	-0.129 E-score
CTCTCGCA	-0.26 E-score
CCTGATCG	-0.00357 E-score
TATAAATA	0.397 E-score
AGGAGCCC	-0.365 E-score
TCAGGAAA	-0.0718 E-score
AAATTCGC	0.0646 E-score
TCGAACGA	0.0918 E-score
AGATTGTC	0.135 E-score
CGATTGGA	-0.267 E-score
AATTCGTA	0.263 E-score
CTCCATTC	0.0472 E-score
TAAGTCAA	0.0333 E-score
GAGCGGTA	0.0846 E-score
AGGACATG	-0.123 E-score
AGTACGCA	0.194 E-score
TGGGATAA	-0.0466 E-score
CACCTATC	0.0598 E-score
ACTTAGAA	0.142 E-score
CACACGAC	0.0625 E-score

Sequence	binding signal
CCCATCGG	-0.38 E-score
ACACTTAG	0.198 E-score
ACTAGCGG	0.188 E-score
CTTGTCAA	0.000136 E-score
GACTTATA	0.257 E-score
CTCGTAGA	0.106 E-score
AAATGTAC	0.343 E-score
ACTCAGTC	-0.104 E-score
TGCGTACA	0.0261 E-score
CCCCATGA	-0.154 E-score
AGCGGCGA	-0.0194 E-score
CCAACCAA	-0.0363 E-score
GGACCGCC	-0.414 E-score
ATAGGGAC	-0.122 E-score
CTGATGAC	-0.227 E-score
GAAACACC	-0.144 E-score
CAACAAAG	0.0451 E-score
CGATTGAA	0.0995 E-score
ATTCCTTC	-0.0807 E-score
CTACTGGC	0.016 E-score
ATCATACG	0.162 E-score
GGTCTTCA	-0.177 E-score
GGGTAGTA	0.238 E-score
GAGTGTGA	0.079 E-score
ACGGTTCG	-0.0124 E-score

Sequence	binding signal
CCGAGACC	-0.247 E-score
ATAATTAG	0.317 E-score
GAGAAGTA	0.219 E-score
ATGGCTCG	-0.0233 E-score
CAAGTCTC	-0.311 E-score
AAACGTCG	-0.134 E-score
ATTCCTAA	0.0277 E-score
AGGCTAAG	-0.154 E-score
AGCGGGCG	-0.392 E-score
CCCGCGGG	-0.305 E-score
AACGTGAG	0.00804 E-score
ACAGAACA	-0.147 E-score
ACTTCGCC	0.0315 E-score
AAAACGCG	-0.0623 E-score
ACGTGTAA	0.103 E-score
GCCCCCAA	-0.255 E-score
AAACACAA	0.157 E-score
ACCCCGCT	-0.246 E-score
CCGCCGAA	-0.277 E-score
CGTGTGCC	-0.181 E-score
CCTTTTAC	-0.0953 E-score
AGATTAAA	0.106 E-score
ATATACAA	0.389 E-score
CCAAGTAA	0.0457 E-score
ATGCGTGA	-0.0429 E-score

Sequence	binding signal
ATGAAGTG	-0.129 E-score
ATTTCCGC	0.0588 E-score
CGGATCGC	-0.241 E-score
AACCCATT	0.108 E-score
ACGTACGT	0.0831 E-score
ATTACCTG	0.126 E-score
ACACGTCC	-0.187 E-score
AAGAGGGT	-0.186 E-score
CATCCTGC	-0.116 E-score
TGAGATCA	0.0366 E-score
ATGCACAA	0.0999 E-score
ACCGCTTA	-0.0233 E-score
TGTATAAA	0.267 E-score
ACACCTAA	0.199 E-score
AATCAGAT	-0.108 E-score
CAATCAAG	-0.0294 E-score
ATATTCAG	0.1 E-score
ATCACATG	0.0965 E-score
CATTAAGC	-0.00344 E-score
GGTGGGAA	0.00996 E-score
ACCACGCT	-0.0407 E-score
CAAGTGCC	-0.231 E-score
